# Experimental data taken from PubChem BioAssay AID651820 (National Center for Advancing Translational Sciences (NCATS), 2012).
# Hit rate of the full screen: of about 340,000 compounds, about 12,000 (3.5%) were called active. The inconclusive results got no clear call from the source; some entries with a clear call stand among them for comparison. The call rests on the fitted dose curve; in most records, active means well fitted inhibition curve with a large enough effect; inconclusive means small, poorly fitted or top-dose-only effect, or another doubt; inactive means no such curve, though single readings can be large or run the other way. No potency is given beside an inconclusive call; the fits are too rough.
# Assay: qHTS Assay for Inhibitors of Hepatitis C Virus (HCV)
# Conditions: Huh7.5.1 HCVcc-Cre (HCVcc is cell-culture hepatitis C virus) infection, luciferase reporter, 44 h; activity change, negative = inhibition: at 41.8 µM (top of the series) unless noted
# Outline: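 Cells seeded at 1,000/well and cultured 4 h, then compounds added followed by HCVcc-Cre virus (~0.5 moi). After 44 h further culture, luciferase substrate was added, plates held 15 min at room temperature, and luminescence read for 15 sec.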
# On the % scale 0 is the no-effect control and ±100 the full control effect; potency means the concentration at half of the fitted maximal effect; tags describe the fitted curve by direction and shape.
SMILES,"activity change, negative = inhibition",Potency
COc1cccc(CNC(=O)Cc2ccc(NC(=O)C3=C(C)OCCS3)cc2)c1,inactive: -22.5%,–
C/C(N)=C(/C#N)C(=O)CSc1nc2scc(-c3ccc(F)cc3)c2c(=O)n1C,–,"inconclusive [inhibitor, single point]"
CCCOc1ccc(/C=C/c2c([N+](=O)[O-])c(=O)n(C)c(=O)n2C)cc1,inactive: -22%,–
COc1cc(-c2nc3ccccn3c2/N=C/c2cccc(OC)c2O)ccc1O,inactive: 4.91%,–
CCOC(=O)C1=C(Cn2cnc3ccccc32)NC(=O)NC1c1ccc(OC)cc1 (stereo not given),inactive: 0.951%,–
O=c1c2ccccc2nc(-c2ccc(Br)cc2)n1Cc1ccccc1,–,"inconclusive [inhibitor, single point]"
Cc1nc(N2CCN(C)CC2)c2sc(=S)n(-c3ccccc3)c2n1,inactive: -16%,–
COc1cc(NC(=O)c2ccccc2-n2cnnn2)cc(OC)c1,inactive: -11.1%,–
Cn1c(Cn2c(=O)sc3ccccc32)nnc1SCc1cccc(F)c1,inactive: 0.185%,–
CCOC(=O)N1CCN(Cc2nc3cc(NC(=O)c4ccco4)ccc3n2CC)CC1,–,"inconclusive [inhibitor, single point]"
COc1ccccc1N1CCN(C(=O)CCc2ccc(S(=O)(=O)NCC(C)C)cc2)CC1,–,"inconclusive [inhibitor, single point]"
C/C(=N\NC(=O)c1cc(O)ccc1O)c1cccc(NC(=O)c2ccc(Cl)cc2)c1,–,"inconclusive [inhibitor, partial curve]"
CCOC(=O)N1CC=C2C(C#N)=C(N)C(C#N)(C#N)[C@H](c3ccc(OCC)c(OCC)c3)[C@H]2C1,–,"inconclusive [inhibitor, single point]"
Cc1cc(/C=C(\C#N)C(=O)Nc2ccccc2)c(C)n1-c1ccc2c(c1)OCO2,–,"inconclusive [inhibitor, full curve]"
O=C(Nc1ccccc1C(F)(F)F)c1ccc(CN2CCC(Cc3ccccc3)CC2)cc1,–,"inconclusive [inhibitor, single point]"
O=C(O)CCCCCNS(=O)(=O)c1cccc2c1C(=O)c1ccccc1C2=O,inactive: -15.9%,–
Cc1ccc(N(C(=O)c2snc(C(N)=O)c2N)C(C(=O)NCC2CCCO2)c2c[nH]c3ccccc23)cc1 (stereo not given),–,"inconclusive [inhibitor, single point]"
N#CCSc1nc2ccccc2c(=O)n1CCC(=O)NC1CCCCC1,inactive: -7.45%,–
CCOc1cc(C)c(Cl)cc1S(=O)(=O)NC1CC(C)(C)NC(C)(C)C1,–,"inconclusive [inhibitor, single point]"
COc1ccc(-c2csc3nc(C)nc(N4CCC(C)CC4)c23)cc1OC,–,"inconclusive [inhibitor, partial curve]"
CCn1c(SCC(=O)N2CCN(c3ccccc3)CC2)nc2c(c1=O)SC(C)C2 (stereo not given),inactive: -10.1%,–
Cc1cc(OCC(=O)Nc2sc3c(c2C#N)CC(C)(C)NC3(C)C)c(C(C)C)cc1Cl,–,active: 3.16 µM
C=CCNC(=S)NNC(=O)c1cc(O)ccc1O,inactive: -5.27%,–

SMILES,"activity change, negative = inhibition",Potency
CC(C)(C)c1ccc(C2=CC(c3ccccc3F)n3ncnc3N2)cc1 (stereo not given),inactive: 7.95%,–
C[C@H](CO)N1C[C@H](C)[C@@H](CN(C)C)Oc2c(NC(=O)Cc3ccccc3)cccc2C1=O,–,active: 0.562 µM
CN(C(=O)c1ccc(-c2nn(C)c(=O)c3ccccc23)cc1)C1CCCCC1,–,"inconclusive [inhibitor, single point]"
O=C(Nc1ccc(Br)c2ccccc12)c1ccc2ccccc2c1O,–,"inconclusive [inhibitor, single point]"
CCOC(=O)N1CCN(C(=O)/C(=C/c2cccc3ccccc23)NC(=O)c2ccc(OC)cc2)CC1,–,"inconclusive [inhibitor, single point]"
O=C(O)CC(C(=O)NCc1ccccc1)C1CCCO1 (stereo not given),inactive: -0.274%,–
CCOC(=O)COc1cccc2c(=O)n(CC(=O)N3CCC(C)CC3)ccc12,inactive: 18.3%,–
Cc1ccc(C2Oc3ccccc3C3=C2C(c2cccs2)n2ncnc2N3)cc1 (stereo not given),–,active: 12.6 µM
CCC(C)(C(=O)NC1CCCC1)N(Cc1ccco1)C(=O)c1ccc2c(c1)OCO2 (stereo not given),–,"inconclusive [inhibitor, partial curve]"
CN1c2ccccc2-c2nc3ccccc3n2C1c1cccs1 (stereo not given),–,"inconclusive [inhibitor, partial curve, poor fit]"
CCOC(=O)Cn1nnnc1C(CC)N(Cc1cccs1)Cc1cc2cc(C)ccc2[nH]c1=O (stereo not given),inactive: -7.31%,–
COc1ccccc1NS(=O)(=O)c1ccc2nc(CCl)[nH]c2c1,inactive: -16.5%,–
COc1ccccc1-n1c(SCC(=O)Nc2ccc(NC(C)=O)cc2)nc2c([nH]c3ccccc32)c1=O,–,"inconclusive [inhibitor, single point]"
O=C(NCCOc1ccccc1)C1Nc2ccc(OC(F)(F)F)cc2C2C=CCC12 (stereo not given),–,"inconclusive [inhibitor, single point]"
Nc1cc(S(=O)(=O)Nc2ccccc2Cl)ccc1N1CCCC1,–,"inconclusive [inhibitor, single point]"
CCCCCn1c(SCC#N)nc2cc(C(=O)NCC3CCCO3)ccc2c1=O (stereo not given),–,"inconclusive [inhibitor, single point]"
O=C(Nc1nc(-c2ccccn2)cs1)c1ccc(-c2ccccc2F)o1,–,"inconclusive [inhibitor, partial curve]"
CC(C(=O)N(C1CC1)C1(C(=O)Nc2ccccc2)CCCC1)N1C(=O)c2ccccc2C1=O (stereo not given),–,"inconclusive [inhibitor, single point]"
CCCc1nc2scc(-c3ccc(C)cc3)c2c(=O)n1N,–,"inconclusive [inhibitor, partial curve]"
CCOC(=O)c1c(C)[nH]c(C)c1S(=O)(=O)NCCc1sccc1C,–,"inconclusive [inhibitor, single point]"
C[C@@H](N)C(=O)NC[C@H]1CC[C@H](C(=O)N[C@@H](Cc2ccccc2)C(=O)O)CC1,inactive: 16.9%,–
COc1ccc(C(=O)C(C)OC(=O)c2cccc(S(=O)(=O)Nc3cc(Cl)c(OC)cc3OC)c2)cc1 (stereo not given),–,"inconclusive [inhibitor, partial curve, poor fit]"
